Experimental data taken from PMC5206653, “PDLIM5 links kidney anion exchanger 1 (kAE1) to ILK and is required for membrane targeting of kAE1” (Scientific Reports, 2017).
Results are given in words; binding and its absence hold for the method and conditions named. For part of these data: Binding seen in cells or lysates may run through a third protein. Some results given as binding are weak or reduced against the parent protein; the word gives no strength. Tags and fused reporters may be left off the sequences shown.

By UniProt entry, the sequences of proteins in these tests, tags left out.
UniProt Q13418: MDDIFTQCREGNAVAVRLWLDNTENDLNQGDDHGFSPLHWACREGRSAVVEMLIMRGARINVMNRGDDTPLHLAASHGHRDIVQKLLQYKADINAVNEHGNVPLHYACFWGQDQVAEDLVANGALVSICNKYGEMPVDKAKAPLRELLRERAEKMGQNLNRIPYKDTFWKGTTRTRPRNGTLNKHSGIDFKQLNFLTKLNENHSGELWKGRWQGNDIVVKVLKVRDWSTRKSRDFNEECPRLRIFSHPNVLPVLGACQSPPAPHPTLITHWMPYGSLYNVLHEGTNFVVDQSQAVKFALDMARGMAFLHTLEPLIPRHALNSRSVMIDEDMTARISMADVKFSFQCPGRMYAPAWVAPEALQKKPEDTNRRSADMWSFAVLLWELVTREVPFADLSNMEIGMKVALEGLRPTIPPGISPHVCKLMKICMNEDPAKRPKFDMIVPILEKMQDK

T1: GST_PDLIM5 recombinant protein (GST-PDLIM5a) (human) (UniProt Q96HC4)
T1 sequence: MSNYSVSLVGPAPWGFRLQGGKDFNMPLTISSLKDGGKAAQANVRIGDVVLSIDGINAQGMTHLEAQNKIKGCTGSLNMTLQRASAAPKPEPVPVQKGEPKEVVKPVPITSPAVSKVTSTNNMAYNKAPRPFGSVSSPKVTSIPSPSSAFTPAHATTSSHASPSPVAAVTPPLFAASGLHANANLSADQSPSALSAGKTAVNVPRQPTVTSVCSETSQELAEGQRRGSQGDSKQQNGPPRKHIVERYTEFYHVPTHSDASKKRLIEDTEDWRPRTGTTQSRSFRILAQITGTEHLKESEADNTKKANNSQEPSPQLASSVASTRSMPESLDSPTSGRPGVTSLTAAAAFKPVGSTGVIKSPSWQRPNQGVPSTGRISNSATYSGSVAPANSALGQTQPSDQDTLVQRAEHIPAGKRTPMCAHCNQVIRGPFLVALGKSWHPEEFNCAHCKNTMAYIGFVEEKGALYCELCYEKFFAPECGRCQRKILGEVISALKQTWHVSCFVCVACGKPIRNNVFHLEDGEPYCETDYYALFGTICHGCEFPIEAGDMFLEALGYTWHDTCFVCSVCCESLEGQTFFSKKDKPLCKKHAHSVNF

T2: GST-tagged AE1 C-terminal domain, wild type (GST_AE1C-WT) (human)
T2 sequence: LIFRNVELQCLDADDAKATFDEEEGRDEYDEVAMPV

T3: tag-free PDZ domain of PDLIM5 (PDLIM5-PDZ), first 127 residues (human) (UniProt Q96HC4)
T3 sequence: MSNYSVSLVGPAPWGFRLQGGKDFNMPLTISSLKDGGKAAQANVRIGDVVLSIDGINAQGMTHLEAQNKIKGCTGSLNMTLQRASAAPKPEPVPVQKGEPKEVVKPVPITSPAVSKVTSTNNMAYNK

T4: GST-tagged AE1 C-terminal domain lacking the last 11 residues (GST_AE1C-Δ11) (human)
T4 sequence: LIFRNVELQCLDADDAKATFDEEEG


Tests used:
[1] = target: T1, GST_PDLIM5 recombinant protein (GST-PDLIM5a) (human); test: far-Western, overlay or dot blot; GST-AE1C, GST-PDLIM5, PDLIM5-PDZ or GST alone spotted (pmole amounts) on nitrocellulose, overlaid with GST-ILK (50–65 pmoles) in PBS with 2% skimmed milk and 0.1% Tween 20; detection with anti-ILK; both purified
[2] = target: T2, GST-tagged AE1 C-terminal domain, wild type (GST_AE1C-WT) (human); test: condition: 50–65 pmoles GST-ILK overlaid; 30, 60 and 120 pmoles spotted; far-Western, overlay or dot blot; GST-AE1C, GST-PDLIM5, PDLIM5-PDZ or GST alone spotted (pmole amounts) on nitrocellulose, overlaid with GST-ILK (50–65 pmoles) in PBS with 2% skimmed milk and 0.1% Tween 20; detection with anti-ILK; both purified
[3] = target: T3, tag-free PDZ domain of PDLIM5 (PDLIM5-PDZ), first 127 residues (human); test: as above
[4] = target: T2, GST-tagged AE1 C-terminal domain, wild type (GST_AE1C-WT) (human); test: ELISA; 100 μl of 30 μM GST_AE1C-WT, -Δ11, -M909T or GST alone immobilised on a 96-well plate; incubated with 100 μl of 2 μg/ml GST_PDLIM5, tag-free PDLIM5-PDZ or GST_ILK; detection with anti-PDLIM5-nt or anti-ILK, HRP, ABTS; both purified
[5] = target: T4, GST-tagged AE1 C-terminal domain lacking the last 11 residues (GST_AE1C-Δ11) (human); test: as above
[6] = target: T2, GST-tagged AE1 C-terminal domain, wild type (GST_AE1C-WT) (human); test: as above; remark: listed apart in the source
[7] = target: GST-tagged AE1 C-terminal domain with the missense mutation M909T (GST_AE1C-M909T) (human) (UniProt P02730); test: as above
[8] = target: T2, GST-tagged AE1 C-terminal domain, wild type (GST_AE1C-WT) (human); test: pull-down; bead-bound GST_AE1C-WT or GST alone against human kidney cytosol; blots with anti-PDLIM5-ct or anti-ILK; only the target purified
[9] = target: T2, GST-tagged AE1 C-terminal domain, wild type (GST_AE1C-WT) (human); test: pull-down; bead-bound GST_AE1C-WT or GST alone against HEK-ΔpMEP-eGFP-kAE1 cell lysates (150 mM NaCl, 20 mM Tris-HCl pH 7.4, 10% glycerol, 1% NP-40); blots with anti-PDLIM5-ct or anti-ILK; only the target purified

Row | binding [5] | binding [8] | binding [9] | Molecule | also measured
1 | no binding (tested: 2 μg/ml) | – | – | tag-free PDZ domain of PDLIM5 (PDLIM5-PDZ), first 127 residues (domain or fragment, UniProt Q96HC4 1-127) MSNYSVSLVGPAPWGFRLQGGKDFNMPLTISSLKDGGKAAQANVRIGDVVLSIDGINAQGMTHLEAQNKIKGCTGSLNMTLQRASAAPKPEPVPVQKGEPKEVVKPVPITSPAVSKVTSTNNMAYNK | –
2 | – | binds | binds | PDLIM5b, endogenous (protein, UniProt Q96HC4-4 1-487) MSNYSVSLVGPAPWGFRLQGGKDFNMPLTISSLKDGGKAAQANVRIGDVVLSIDGINAQGMTHLEAQNKIKGCTGSLNMTLQRASAAPKPEPVPVQKPTVTSVCSETSQELAEGQRRGSQGDSKQQNGPPRKHIVERYTEFYHVPTHSDASKKRLIEDTEDWRPRTGTTQSRSFRILAQITGTEHLKESEADNTKKANNSQEPSPQLASSVASTRSMPESLDSPTSGRPGVTSLTAAAAFKPVGSTGVIKSPSWQRPNQGVPSTGRISNSATYSGSVAPANSALGQTQPSDQDTLVQRAEHIPAGKRTPMCAHCNQVIRGPFLVALGKSWHPEEFNCAHCKNTMAYIGFVEEKGALYCELCYEKFFAPECGRCQRKILGEVISALKQTWHVSCFVCVACGKPIRNNVFHLEDGEPYCETDYYALFGTICHGCEFPIEAGDMFLEALGYTWHDTCFVCSVCCESLEGQTFFSKKDKPLCKKHAHSVNF | –

Further lines, the molecule ahead of its results:

Row | Molecule | binding [5] | binding [8] | binding [9] | also measured
3 | GST_ILK recombinant protein (integrin-linked kinase) (from UniProt Q13418 1-452) | – | – | – | binding [1]: binds; binding [2]: no binding; binding [3]: no binding; binding [4]: no binding (tested: 2 μg/ml)
4 | GST_PDLIM5 recombinant protein (GST-PDLIM5a) (protein, UniProt Q96HC4-1 1-596) MSNYSVSLVGPAPWGFRLQGGKDFNMPLTISSLKDGGKAAQANVRIGDVVLSIDGINAQGMTHLEAQNKIKGCTGSLNMTLQRASAAPKPEPVPVQKGEPKEVVKPVPITSPAVSKVTSTNNMAYNKAPRPFGSVSSPKVTSIPSPSSAFTPAHATTSSHASPSPVAAVTPPLFAASGLHANANLSADQSPSALSAGKTAVNVPRQPTVTSVCSETSQELAEGQRRGSQGDSKQQNGPPRKHIVERYTEFYHVPTHSDASKKRLIEDTEDWRPRTGTTQSRSFRILAQITGTEHLKESEADNTKKANNSQEPSPQLASSVASTRSMPESLDSPTSGRPGVTSLTAAAAFKPVGSTGVIKSPSWQRPNQGVPSTGRISNSATYSGSVAPANSALGQTQPSDQDTLVQRAEHIPAGKRTPMCAHCNQVIRGPFLVALGKSWHPEEFNCAHCKNTMAYIGFVEEKGALYCELCYEKFFAPECGRCQRKILGEVISALKQTWHVSCFVCVACGKPIRNNVFHLEDGEPYCETDYYALFGTICHGCEFPIEAGDMFLEALGYTWHDTCFVCSVCCESLEGQTFFSKKDKPLCKKHAHSVNF | no binding (tested: 2 μg/ml) | – | – | binding [6]: binds; binding [7]: binds
5 | PDLIM5a, endogenous (protein, UniProt Q96HC4-1 1-596) MSNYSVSLVGPAPWGFRLQGGKDFNMPLTISSLKDGGKAAQANVRIGDVVLSIDGINAQGMTHLEAQNKIKGCTGSLNMTLQRASAAPKPEPVPVQKGEPKEVVKPVPITSPAVSKVTSTNNMAYNKAPRPFGSVSSPKVTSIPSPSSAFTPAHATTSSHASPSPVAAVTPPLFAASGLHANANLSADQSPSALSAGKTAVNVPRQPTVTSVCSETSQELAEGQRRGSQGDSKQQNGPPRKHIVERYTEFYHVPTHSDASKKRLIEDTEDWRPRTGTTQSRSFRILAQITGTEHLKESEADNTKKANNSQEPSPQLASSVASTRSMPESLDSPTSGRPGVTSLTAAAAFKPVGSTGVIKSPSWQRPNQGVPSTGRISNSATYSGSVAPANSALGQTQPSDQDTLVQRAEHIPAGKRTPMCAHCNQVIRGPFLVALGKSWHPEEFNCAHCKNTMAYIGFVEEKGALYCELCYEKFFAPECGRCQRKILGEVISALKQTWHVSCFVCVACGKPIRNNVFHLEDGEPYCETDYYALFGTICHGCEFPIEAGDMFLEALGYTWHDTCFVCSVCCESLEGQTFFSKKDKPLCKKHAHSVNF | – | binds | binds | –
